Experimental data: PubChem BioAssay AID1963576 (National Center for Advancing Translational Sciences (NCATS), 2024)
The whole screen tested about 46,000 compounds, of which about 60 (0.1%) were called active. Not shown: some 3% with an inconclusive outcome. Calls come from the whole dose curve; as a rule, active = well fitted inhibition curve with a large enough effect; inconclusive = small, poorly fitted or top-dose-only effect; inactive = no such curve, though single readings can be large or run the other way. This is one part of the list.

test: Primary qHTS assay for Inhibitors of ovarian cancer metastasis using an organotypic tumor microenvironment (TME) model.; note: nearly all actives have a fitted effect of over 65% in size;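 for activity change, negative = inhibition: plate controls were DMSO wells for no effect and tomatine positive control wells for full effect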; details: SKOV3ip1-GFP adhesion/invasion on 3D omental model, fluorescence; series mostly up to 45.8 µM; activity change, negative = inhibition: at the top concentration
Method in brief: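 A 3D layer of primary human omental fibroblasts, mesothelial cells, fibronectin and collagen I, grown 48 hr, received SKOV3ip1-GFP cells in serum-free medium plus compounds at 0.36-46 umol/L. After 2 hr RT and 16 hr 37 C, fixed adherent GFP cells were counted; normalized to DMSO and tomatine.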

Activity change, negative = inhibition, inactive:
COc1ccc(Nc2nc(-c3ccc(C)cc3)nc3ccccc23)c(OC)c1 -0.167%, CCOc1ccc(-c2nonc2NC(=O)COc2c(C)cc(C)cc2C)cc1OCC -6.15%, CCc1ccc(C(=O)c2cn(CC(=O)Nc3ccc4c(c3)OCO4)c3cc(OC)c(OC)cc3c2=O)cc1 -8.62%, CCOC(=O)C1CCC(CN(Cc2cccc(Br)c2)S(=O)(=O)c2ccc(C)cc2)CC1 (stereo not drawn) 5.61%, CCc1ccccc1NC(=O)c1c(NC(=O)c2ccccc2)sc2c1CCCC2 8.07%, O=C(COc1ccc(Cl)cc1)Nc1ccc(-c2nc3ccccc3s2)c(O)c1 5.42%, COc1ccc(CNC(=O)CCn2cccn2)cc1 6.71%, Cc1ccccc1C(=O)n1nc(-c2ccco2)nc1NCc1ccc(Cl)cc1 -1.8%, Cc1ccc2nc(N3CCN(c4cccc(Cl)c4)CC3)c(-n3nc(C)cc3C)nc2c1 1.62%, Cc1cccc(Oc2nc3c(C)cccn3c(=O)c2/C=C(\C#N)c2nc3ccccc3[nH]2)c1 5.7%, CCOC(=O)C1=C(CN2CCC(C)CC2)NC(=O)NC1c1ccc(F)cc1 (stereo not drawn) 6.32%, Cc1cc(C)c2c(=O)cc(CSCC(=O)Nc3ccccc3Cl)[nH]c2c1 6.87%, Cc1ccc(-c2cc3ncc4c(n3n2)-c2cc(C)ccc2OC4)cc1 9.34%, COc1ccc(OC)c2sc(N3CCN(C(=O)C(C)(C)C)CC3)nc12 4.78%, COc1cc(Cl)c(NC(=O)CCS(=O)(=O)c2cc3c(cc2Cl)NC(=O)CO3)c(OC)c1 -2.64%, CS(=O)(=O)c1ccc(-c2nnc(NC(=O)c3ccc4c(c3)OCCO4)o2)cc1 11.3%, CCN(CC)CCNC(=O)c1ccc(Cn2c(SCc3ccccc3)nc3cccnc32)cc1 -1.6%, COc1ccc(CNS(=O)(=O)c2cnc(N)nc2)c(OC)c1 9.28%, COc1ccc(CNC(=O)c2ccc(N3CCCC3)c(NC(=O)NCc3ccc(F)cc3)c2)cc1 3.89%, Cc1cccc(C)c1OCC(=O)NCC1(N(C)C)CCCCC1 12.4%, CNC(=O)c1c(NC(=O)c2ccc(S(=O)(=O)N3CCC(C)CC3)cc2)sc2c1CCC2 -10.8%, Cc1ccc(N2C(=O)CSC23C(=O)N(CC(=O)NCc2ccccc2)c2ccccc23)cc1C (stereo not drawn) -1.67%, CC(=O)c1ccc(NC(=O)Cn2cc(S(=O)(=O)Cc3cccc(Cl)c3)c3ccccc32)cc1 0.234%, CC(C)(O)[C@H]1CC[C@@](C)([C@H]2[C@@H](O)C[C@@]3(C)[C@@H]4C[C@H](O[C@@H]5O[C@H](CO)[C@@H](O)[C@H](O)[C@@H]5O)[C@H]5C(C)(C)[C@@H](O[C@@H]6OC[C@@H](O)[C@H](O)[C@@H]6O)CC[C@@]56C[C@@]46CC[C@]23C)O1 4.8%, CCOc1cc(CNC(=O)c2sc3ncnc(N(C)C4CCCCC4)c3c2C)ccc1OC -1.52%, CCc1nc2ccccc2n1CCCCOc1ccc(C)cc1 2.61%, CCN(C(=O)c1cc2c(s1)-c1c(C)cccc1OC2)c1ccccc1F 4.36%, CCC(=O)N1CCc2cc(Br)cc(S(=O)(=O)Nc3ccc(C)cc3C)c21 -6.08%, CC(C)Oc1ccc(CNC(=O)CCCN2C(=O)c3cccnc3Oc3ccc(Cl)cc32)cc1 15.5%, COc1ccc(-c2c(-c3ccc(O)cc3O)n[nH]c2C)cc1 -8.23% [at 92.2 µM], CCOc1ccc(NS(=O)(=O)c2ccc(-c3cc(C)no3)s2)cc1 5.43%, Cc1ccc(C)c(NC(=O)c2cnn(-c3cccc(F)c3)c2C2CCN(C(=O)OC(C)(C)C)CC2)c1 3.7%, COc1ccc(-n2nc(C(=O)N(C)c3cc(C)ccc3C)c3c4ccccc4n(C)c3c2=O)cc1Cl 1.68%, O=C(Cn1cc(SCc2c(F)cccc2Cl)c2ccccc21)N1CCCCCC1 0.835%, CCN(c1ccccc1)S(=O)(=O)c1ccc(NC(=O)c2cc(=O)c3cc(C)cc(C)c3o2)cc1 -4.63%, Cc1c(Cl)cccc1NC(=O)c1cnc2sc(N3CCOCC3)nn2c1=O 1.52%, COc1ccc(OC)c(CCNC(=O)CCCn2c(=O)c3cccn3c3ccccc32)c1 -5.37%, COc1ccc2oc(=O)cc(CN3CCN(Cc4ccccc4)CC3)c2c1 7.83%, O=C(Nc1ccc2nn(-c3ccccc3)nc2c1)c1cc2ccccc2o1 -4.96%, O=C(CSc1cn(CC(=O)N2CCOCC2)c2ccccc12)Nc1ccccc1F 1.23%, Cc1ccc(S(=O)(=O)Nc2ccc3c(c2)CCCN3C(=O)c2cccs2)cc1 -27.1%, CCc1ccc(CNc2ncnc3c2nc2n3CCCC2)cc1 4.29%, CCc1cccc(NC(=O)Cn2c(=O)ccc3cc(S(=O)(=O)N4CCC(C)CC4)ccc32)c1 28.6%, CCOc1ccccc1N1CC(c2nc3ccccc3n2CCOc2ccccc2)CC1=O (stereo not drawn) 2.27%, Cc1cc(C)c2c(CC(=O)N3CCN(c4cccc(Cl)c4)CC3)coc2c1 6.77%, O=C(c1ccc2c(c1)N(Cc1ccc(Cl)cc1)C(=O)c1ccccc1S2=O)N1CCOCC1 (stereo not drawn) -1.06%, COc1ccc(C(CNC(=O)c2oc3ccc(Cl)cc3c2C)N2CCCCC2)cc1 (stereo not drawn) 3.49%, CC1CCc2nc3ncn(Cc4ccccc4C#N)c(=O)c3cc2C1 (stereo not drawn) 2.14%, COc1cccc(N2CCN(C(=O)c3ccc(Cn4c(=O)[nH]c5cc(OC)c(OC)cc5c4=O)cc3)CC2)c1 -10.5%, COc1cccc(CSc2nc3cc(C(=O)NC4CCCC4)ccc3c(=O)n2Cc2ccccc2)c1 -6.77%, CCCCNc1nc2c(c(=O)n(Cc3ccc(Cl)cc3)c(=O)n2C)n1C 0.79%, CCCC(=O)N(c1ccc2oc3c(c2c1)CCCC3)S(=O)(=O)c1cc(C)ccc1C 5.24%, COc1ccc(-n2cc(C(=O)NCc3ccccc3)c3ccccc3c2=O)cc1 -2.3%, CCc1ccc(-c2nc3ccc(Br)cc3c(C(=O)O)c2C)s1 -11.9%, Cc1ccccc1CNC(=O)C1CCN(c2nnc(C)c3c(C)n(-c4ccccc4)nc23)CC1 7.51%, O=C(Cn1c(=O)n(Cc2ccc3c(c2)OCO3)c(=O)c2oc3ccccc3c21)Nc1ccccc1 8%, COc1cc(-c2noc(-c3cc4cc(F)ccc4oc3=O)n2)cc(OC)c1OC 11.4%, CCc1nnc(NC(=O)c2cc(=O)c3cc(C)c(C)cc3o2)s1 -1.67%, COC(=O)c1ccc(NC(=O)c2c(NCc3ccc(C)o3)sc3c2CCCC3)cc1 7.31%, CCn1c(C(=O)NCc2cccc(Br)c2)cc2oc3ccccc3c21 1.22%, Cc1cc(C)c2oc(C(=O)Nc3sc4c(c3C(=O)NCc3ccco3)CCC4)cc(=O)c2c1 -0.794%, CN1CCN(C(=O)C(=O)Nc2c3c(nn2-c2ccc(F)cc2)CSC3)CC1 -11.3%, Cc1ccc(NC(=O)/C=C/c2ccccc2)c(Br)c1 0.42%, COc1ccc(N2CCN(C(=O)Cn3cnc4nc5c(cc4c3=O)CCCC5)CC2)cc1 -4.13%, Cc1ccc(S(=O)(=O)NCCc2nnc3ccc(SCc4ccccc4C)nn23)cc1 -0.976%, CC(=O)O[C@@]12CO[C@H]1C[C@H](O)[C@@]1(C)C(=O)[C@H](O)C3=C(C)[C@@H](OC(=O)C(O)[C@@H](NC(=O)OC(C)(C)C)c4ccccc4)C[C@@](O)([C@@H](OC(=O)c4ccccc4)[C@@H]21)C3(C)C (stereo partly drawn) 0.637%, CCOC(=O)c1cccc(NC(=O)c2cc(CN3CCCC3)on2)c1 -0.704%, Cc1ccc(OC(=O)c2cc(-c3ccc4c(c3)OCCO4)on2)c(C)c1 -11.3%

outcome, inactive:
Fc1ccc(-c2noc3ncnc(NCCc4ccccc4)c23)cc1, Cc1ccc(C)c(N2CCN(C(=O)C3CCCN(S(=O)(=O)c4ccc5c(c4)oc(=O)n5C)C3)CC2)c1 (stereo not drawn), COc1ccc(S(=O)(=O)Nc2ccc3c(c2)N(C(C)=O)CCC3)cc1F, Cc1ccc(-c2nnc(SCc3ccccc3C)o2)cc1, COc1ccc(-c2nc(C)c(CCNC(=O)C(=O)Nc3ccccc3OC)s2)cc1, COc1ccc(CCn2cc3c(c2-c2ccc(Br)cc2)c(=O)n(C)c(=O)n3C)cc1OC, COCCCNC(=O)c1ccc(NC(=O)c2nsc3ccccc23)cc1, COc1ccccc1CNC(=O)C1CCC(CNS(=O)(=O)c2ccc3c(c2)CCCC(=O)N3)CC1 (stereo not drawn), CCC1CN(C(=O)N2CCC(C(=O)NCCN(CC)CC)CC2)c2cc(C)ccc2O1 (stereo not drawn), CCOC(=O)c1scc(-c2ccccc2)c1S(=O)(=O)Nc1cc(OC)cc(OC)c1, CCc1cc(=O)oc2c3c(c(Cl)cc12)OCN(Cc1cccc(OC)c1)C3, COc1ccc(CC(=O)N2CCc3cc(OC)c(OC)cc3C2COc2ccc(OC)cc2)cc1 (stereo not drawn), CCC(=O)N1c2ccccc2CC1C(=O)NCCc1ccccc1C (stereo not drawn), Cc1cc2ccccc2n1CCNC(=O)c1cccc(Br)c1, Nc1nnc2c(n1)[nH]c1ccccc12, COC(=O)c1ccc(CSc2nc3c([nH]c4ccccc43)c(=O)n2-c2ccc(Cl)cc2)o1, O=C1CC(c2nc3ccccc3[nH]2)CN1c1cccc(Cl)c1 (stereo not drawn), Cc1cc(Cl)ccc1NC(=O)c1cc(S(=O)(=O)N2CCOCC2)cn1C, COc1ccc(CN2CCN(Cc3cc(=O)oc4cc(C)ccc34)CC2)c(OC)c1OC, O=C(CSc1nc2ccccc2n1Cc1ccccc1)N1CCN(c2ccc(F)cc2)CC1, CSc1ccc(CCNC(=O)C2CCN(c3nc4ccccc4nc3C(F)(F)F)CC2)cc1, CN1C(=O)C2(c3ccccc31)N(c1ccccc1)C(=O)CS2(=O)=O (stereo not drawn), Cc1ccc(C)c(CN2C(=O)c3ccccc3S(=O)(=O)c3ccc(C(=O)Nc4ccccc4C(F)(F)F)cc32)c1, COc1ccc(-c2nc3scc(CCNS(=O)(=O)c4c(C)noc4C)n3n2)cc1, COc1ccc(/C=C\c2onc(C)c2S(=O)(=O)N2CCC(C(=O)Nc3ccccc3OC)CC2)cc1
